Assay results from PubChem BioAssay AID588456 (National Center for Advancing Translational Sciences (NCATS), 2011).
In all, about 390,000 compounds went through this assay and about 55 (0.01%) were called active. The inconclusive results got no clear call from the source; some entries with a clear call stand among them for comparison. Calls come from the whole dose curve; as a rule, active = well fitted inhibition curve with a large enough effect; inconclusive = small, poorly fitted or top-dose-only effect; inactive = no such curve, though single readings can be large or run the other way. A potency beside an inconclusive call is a rough fit, not a confirmed value.

Biological target: Thioredoxin reductase 1, cytoplasmic (Rattus norvegicus) (UniProt O89049)
Chain of UniProt O89049 (O89049 whole entry, looked up): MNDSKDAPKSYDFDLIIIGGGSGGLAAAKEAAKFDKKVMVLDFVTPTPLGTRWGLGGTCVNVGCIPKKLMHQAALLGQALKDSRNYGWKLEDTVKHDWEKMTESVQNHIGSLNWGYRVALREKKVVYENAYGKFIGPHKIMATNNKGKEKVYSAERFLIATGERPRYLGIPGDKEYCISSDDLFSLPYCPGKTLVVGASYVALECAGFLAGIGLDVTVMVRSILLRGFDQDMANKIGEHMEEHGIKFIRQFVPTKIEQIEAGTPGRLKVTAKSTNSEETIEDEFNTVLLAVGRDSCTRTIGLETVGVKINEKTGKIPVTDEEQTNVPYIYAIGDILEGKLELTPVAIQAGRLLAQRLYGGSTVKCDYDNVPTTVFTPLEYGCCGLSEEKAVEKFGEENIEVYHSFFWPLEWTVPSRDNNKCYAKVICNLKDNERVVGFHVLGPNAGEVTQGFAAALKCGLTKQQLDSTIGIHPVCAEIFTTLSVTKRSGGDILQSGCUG
Test: qHTS Assay for Substrates of Mammalian Selenoprotein Thioredoxin Reductase 1 (TrxR1): qHTS; note: nearly all actives have a fitted effect of over 50% in size
Details: purified TrxR1 substrate turnover, NADPH consumption readout; series mostly up to 114 µM; activity change, negative = substrate turnover: at the top concentration
Procedure, shortened: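 Rat TrxR1, dispensed at 90 nM, was prereduced with 400 uM NADPH (final) for 5 min at ~22 deg C, then incubated with compound 15 min before 400 uM selenite. A first-read NADPH fluorescence drop versus no-compound background flagged substrates.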
% is set by controls: 0 for no effect and ±100 for the full control effect; potency is the fitted concentration of half-maximal effect; tags give direction and shape of the fitted curve.

| Structure (SMILES) | Potency | activity change, negative = substrate turnover |
| --- | --- | --- |
| O=C(O)COc1ccc(/C=N/NC(=O)/C(=C/C=C/c2ccccc2)NC(=O)c2ccccc2)cc1 | inconclusive: 79.4 µM [inhibitor, partial curve, poor fit] | – |
| COc1ccc(-c2noc(CN3CCCC(OCc4ccccn4)C3)n2)cc1 (stereo not given) | – | inactive: 3.29% |
| COc1ccc(C(=O)Nc2cccc(-c3nc4cccnc4s3)c2C)c(OC)c1 | – | inactive: -3.87% |
| CC(C)n1c(CN(C)Cc2ccccc2)nc2c1c(=O)n(C)c(=O)n2C | inconclusive: 39.8 µM [inhibitor, single point] | – |
| c1cncc(-c2cnc3ccccc3c2)c1 | inconclusive: 89.1 µM [inhibitor, partial curve, poor fit] | – |
| Cc1c(NC(=O)C(=O)N/N=C/c2cccs2)c(=O)n(-c2ccccc2)n1C | inconclusive: 1 µM [inhibitor, partial curve, poor fit] | – |
| O=C(O)CC1S/C(=N/N=C/c2ccc(-c3ccccc3[N+](=O)[O-])o2)NC1=O (stereo not given) | inconclusive: 50.1 µM [inhibitor, partial curve, poor fit] | – |
| CCNC(=O)NC(=O)c1csc([N+](=O)[O-])c1 | – | inactive: 3.33% [at 57.1 µM] |
| Cc1ccccc1OCC(=O)OCc1cc(=O)n2nc(C3CC3)sc2n1 | – | inactive: 3.15% [at 57.1 µM] |
| C[n+]1cccc2c(Br)ccc([O-])c21 | inconclusive: 22.4 µM [inhibitor, partial curve, poor fit] | – |
| COc1cccc(S(=O)(=O)Nc2ccc(C(=O)Nc3ccncc3)cc2)c1 | – | inactive: 4.42% |
| Cc1ccc(CN(C(=O)COc2ccc(Cl)c(C)c2)C2CCS(=O)(=O)C2)o1 (stereo not given) | – | inactive: 0.945% |
| COc1ccccc1/C=C1\SC(=S)N(CCC(=O)NCCCN2CCOCC2)C1=O | – | inactive: -17.9% [at 11.4 µM] |
| N#CC(=C(\N)Sc1ccccc1N)/C(C#N)=C(/N)Sc1ccccc1N | inconclusive: 0.0119 µM [inhibitor, partial curve, poor fit] | – |
| CCSc1nsc(NC(=O)Nc2cccc(F)c2)n1 | inconclusive: 89.1 µM [inhibitor, single point] | – |
| C#CCn1c(=O)c2c(ncn2C)n(C)c1=O | inconclusive: 0.597 µM [inhibitor, partial curve, poor fit] | – |
| CCCC(=O)OC1CC(C)N(C(=O)c2ccccc2)c2ccc(C)cc21 (stereo not given) | inconclusive: 20 µM [inhibitor, partial curve, poor fit] | – |
| COC(=O)c1cc(NS(=O)(=O)c2ccc(N3CCCCC3)c([N+](=O)[O-])c2)cc(C(=O)OC)c1 | inconclusive: 28.2 µM [inhibitor, partial curve, poor fit] | – |
| COc1ccccc1NC(=O)CCC(=O)Nc1cc(OC)c(NC(=O)c2cccs2)cc1OC | – | inactive: 5.65% [at 57.1 µM] |
| CCOC(=O)c1ccc(NC(=O)CSc2ccc3ccccc3n2)cc1 | – | inactive: -6.81% [at 57.1 µM] |
| CN1CCS/C1=C/C=C1\SC(=S)N(CC(=O)O)C1=O | inconclusive: 79.4 µM [inhibitor, partial curve, poor fit] | – |
| Cc1ccc2nc(NC(=O)CSc3nc4c(c(=O)n3C)SC(C)C4)sc2c1 (stereo not given) | – | inactive: -9.13% |
| COc1ccc(C(C2C(=O)CC(C)(C)CC2=O)C2C(=O)CC(C)(C)CC2=O)cc1CO | – | inactive: -3.6% |

| Structure (SMILES) | Potency | activity change, negative = substrate turnover |
| --- | --- | --- |
| O=C(CS(=O)(=O)c1ccc(C(F)(F)F)cn1)NNC(=O)c1ccccc1 | inconclusive: 89.1 µM [inhibitor, single point] | – |
| COc1ccc(CC(=O)N/N=C(\C)c2cccnc2)cc1 | inconclusive: 31.6 µM [inhibitor, single point] | – |
| COc1ccc(C2C(C(C)=O)=C(C)N=c3s/c(=C\c4cc(C)n(C)c4C)c(=O)n32)c(OC)c1 (stereo not given) | inconclusive: 79.4 µM [inhibitor, partial curve, poor fit] | – |
| C[n+]1ccnc2ccccc21 | inconclusive: 35.5 µM [inhibitor, partial curve, poor fit] | – |
| O=C(O)c1cc(-c2cccc3ccccc23)nc2ccccc12 | – | inactive: 14.7% |
| N.N.N.N.N.N.N.N.N.N.N.N.N.N.O.O.[Ru+4].[Ru+5].[Ru+5] | inconclusive: 15 µM [inhibitor, partial curve, poor fit] | – |
| COC(=O)c1c(C)cc(OC(C)=O)c(C)c1OC(C)=O | – | inactive: -1.33% |
| O=C(CSc1cn[nH]n1)Nc1ccc(Cl)cc1Cl | inconclusive: 89.1 µM [inhibitor, partial curve, poor fit] | – |
| COC(=O)c1c(N)sc(Cc2ccccc2)c1C | inconclusive: 39.8 µM [inhibitor, single point] | – |
| Cc1ccc(/C=N\NC(=O)COc2ccc(C)cc2[N+](=O)[O-])cc1 | – | inactive: -12.2% |
| O=S(=O)(Nc1cc(Sc2ncn[nH]2)c(O)c2ccccc12)c1ccccc1 | active: 25.1 µM | – |
| O=C(Cc1ccccc1)N/N=C/c1cccn1-c1ccc([N+](=O)[O-])cc1 | inconclusive: 89.1 µM [inhibitor, partial curve, poor fit] | – |
| CCOc1ccc(OCC)c(NC(=O)CCc2nc3cccnc3n2Cc2cccs2)c1 | – | inactive: -2.23% |
| Cn1c(C(=O)NCCN2CCc3ccccc3C2)cc2c(=O)n(C)c3ccccc3c21 | – | inactive: 2.15% |
| CCCN1CCC(=O)N(C(CSc2ccc(OC)cc2)CC(C)C)CC1 (stereo not given) | – | inactive: -4.43% |
| CN1N/C(=C\c2ccccc2)N=C2C(=O)N(C)C(=O)N=C21 | active: 10 µM | – |
| Cn1nc(-c2ccccn2)nc2c(=O)n(C)c(=O)nc1-2 | active: 35.5 µM | – |
| S=C1Cc2ccccc2N1 | inconclusive: 79.4 µM [inhibitor, partial curve, poor fit] | – |
| CC1CCC/C=C/C(=O)c2c(O)cc(O)cc2CC(=O)O1 (stereo not given) | – | inactive: -3.45% |
| O=C1C(=O)N(CCCN2CCOCC2)C(c2ccc([N+](=O)[O-])cc2)/C1=C(/O)c1ccc2c(c1)OCO2 (stereo not given) | inconclusive: 79.4 µM [inhibitor, partial curve, poor fit] | – |
| Cc1ccc(C(=O)NCC(c2ccco2)S(=O)(=O)c2ccc(Cl)cc2)cc1C (stereo not given) | inconclusive: 6.31 µM [inhibitor, single point] | – |
| O=C(O)CC1S/C(=N/N=C/C=C/c2ccccc2[N+](=O)[O-])NC1=O (stereo not given) | inconclusive: 79.4 µM [inhibitor, partial curve, poor fit] | – |
